These results are taken from PubChem BioAssay AID1346428 (National Center for Advancing Translational Sciences (NCATS), 2018).

The campaign covered roughly 48,000 compounds. About 1,200 (2.5%) were called active. About 2% were inconclusive and are not listed.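 The calls were made as follows: active = activation of at least 60% and not above a set upper limit (about 1 call in 100 departs from these limits); inconclusive = activation of 40% to 60%, or above that upper limit; inactive = activation under 40%.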 The list shows a part of the results.

Sequence of UniProt O75388 (O75388 whole entry, looked up): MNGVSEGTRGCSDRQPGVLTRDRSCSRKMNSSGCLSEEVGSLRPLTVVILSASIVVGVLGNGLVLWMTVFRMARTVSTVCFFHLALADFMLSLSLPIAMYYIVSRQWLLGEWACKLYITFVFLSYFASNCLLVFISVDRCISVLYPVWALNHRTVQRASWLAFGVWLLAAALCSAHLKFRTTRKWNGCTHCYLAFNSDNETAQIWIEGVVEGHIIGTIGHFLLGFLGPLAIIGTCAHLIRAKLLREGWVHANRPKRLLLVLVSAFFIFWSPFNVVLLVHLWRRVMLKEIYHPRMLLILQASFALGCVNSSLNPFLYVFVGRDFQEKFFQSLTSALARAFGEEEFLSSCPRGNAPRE

For the experiment, the target named is Probable G-protein coupled receptor 32 (Homo sapiens) (UniProt O75388). The experiment is described as follows: qHTS for Agonists of Human Resolvin D1 Receptor DRV1. Also: 0% is about no effect. Conditions: CHO-K1 GPR32 beta-arrestin PathHunter luminescence, 90 min; at 76.9 µM; hits give high values; zero percent set by DMSO-only wells. The essentials:
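Readings come from a cell-based beta-arrestin complementation format: CHO-K1 GPR32 stable cells (2,500/well) treated 90 min with compounds, then beta-Gal substrate added for 1 h before chemiluminescence imaging.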
On the technique in general: qHTS replaces the single test concentration by a dilution series.
As for `Cc1cccc(NC(=O)C2CCCN2S(=O)(=O)c2ccc3c(c2)n(C)c(=O)c(=O)n3C)c1` (centres undefined), the activation was inactive: -9.25%. The figure for `CC(=O)c1cccc(NC(=O)C2=CC(c3ccc4c(c3)OCO4)=NS(=O)(=O)N2C)c1` is inactive: -16.7%. On to `Cc1ccc(CNC(=O)c2ccc(CSCc3ccccc3Cl)o2)cc1`, for which the activation was inactive: -24.1%.

Take `COc1ccccc1CNC(=O)CCC1N=C2c3ccccc3N=C(SCC(N)=O)N2C1=O` (centres undefined): the activation was inactive: -21.9%. The figure for `CC1CCCCN1CCCNC(=O)c1[nH]c2ccccc2c1Sc1ccc(Cl)cc1` (centres undefined) is inactive: -21.9%; for `Fc1ccccc1-n1ncc2c1ncn1nc(-c3ccccc3Cl)nc21` it is inactive: -9.15%; for `Cc1cccc(CNC(=O)C(=O)Nc2ccccc2C)c1` it is inactive: -2.68%. The figure for `CC(=O)N1CCc2cc(CNC(=O)Nc3cc(Cl)ccc3C)ccc21` is inactive: 1.81%; for `COc1ccc(Cn2c(CCC(=O)Nc3cccc(OC)c3)nc3cccnc32)cc1` it is inactive: -10.9%. With `CCc1ccc(CNC(=O)C2CCN(c3nc4ccccc4nc3C(F)(F)F)CC2)cc1`, the activation is inactive: -3.92%. With `Cc1cccc(C)c1NC(=O)CSc1nc2ncccc2o1`, the activation was inactive: 2.07%. As for `Cc1ccc(S(=O)(=O)NCC(c2ccc(N(C)C)cc2)N2CCc3ccccc32)cc1C` (centres undefined), the figure is inactive: -26.7%. In the case of `CCN1C(=O)c2ccccc2Sc2ccc(NC(=O)Nc3ccccc3OC)cc21`, the activation is inactive: -4.17%.

As for `Cc1ccc(NC(=O)c2c(NC(=O)Cc3ccccc3)sc3c2CCC3)cc1`, the activation was inactive: 2.88%. In the case of `COC(=O)Cc1c(C)c2cc3c(c(C)c2oc1=O)OCN(CCc1ccccc1F)C3`, the activation is inactive: 2.39%. As for `COc1ccc(NC(=O)Cn2c(=O)n(Cc3ccco3)c(=O)c3cc(OC)c(OC)cc32)cc1`, the figure is inactive: -8.28%.

On to `CN(C)c1ccc(-c2nc3cnccn3c2Nc2cccc(C(F)(F)F)c2)cc1`, for which the activation is inactive: -4.85%.

As for `COc1cccc(CNc2nccn(-c3cc(C)cc(C)c3)c2=O)c1`, the activation was active: 63.1%. In the case of `COc1ccc2cc(-c3nc(Cl)c4c5c(sc4n3)CCCC5)c(=O)oc2c1`, the activation is inactive: 10.2%. The figure for `Cc1ccc(-n2ncc(C(=O)NCCN3CCOCC3)c2C2CCN(C(=O)OC(C)(C)C)CC2)c(C)c1` is inactive: -6.86%; for `Cc1cc2c(cc1S(=O)(=O)CCC(=O)N1CCCC(C)C1)OCC(=O)N2` (centres undefined) it is inactive: -3.58%.

With `CCCCN(CCCNC(=O)c1ccc(Sc2ccc(Cl)cc2)c(NC(C)=O)c1)c1ccccc1`, the activation is inactive: -28.2%.

Regarding `Cc1ccc(NC(=O)CSC2=Nc3ccccc3C3=NC(Cc4ccccc4)C(=O)N23)cc1C` (centres undefined), the activation is inactive: -20.3%. In the case of `Cc1c(Cl)cccc1NC(=O)Cn1cc(C(=O)C2CCCCC2)c2ccccc21`, the activation was inactive: 24.8%. The figure for `CCSc1ncc(Cl)c(C(=O)Nc2ccc(S(=O)(=O)N3CCC(C)CC3)cc2)n1` is inactive: -0.606%; for `Clc1ccc2nc(NCc3ccccc3)c3nncn3c2c1` it is inactive: -6.88%. The figure for `O=C(O)c1cccnc1C(=O)O` is inactive: -4.75%; for `COc1ccc(/C=C\C(=O)NC2CC(=O)N(c3ccc(F)cc3)C2)cc1OC` (centres undefined) it is inactive: 4.05%.

`Cc1c(NC(=O)CC(C)C)cccc1-c1nc2cccnc2s1`: the activation is inactive: -3.97%. As for `COc1ccccc1OC(=O)Oc1ccccc1OC`, the figure is inactive: -52.2%. In the case of `O=C(CSc1cn(CCNC(=O)c2ccccc2F)c2ccccc12)Nc1ccccc1F`, the activation is inactive: 31.4%. As for `COc1cccc(-n2c(SCC(=O)Nc3cccc(Cl)c3)nc3c(oc4ccccc43)c2=O)c1`, the figure is inactive: 1.99%; as for `CCOc1ccccc1CNC(=O)c1ccc(-c2nc(CSc3ccc(C)cc3)c(C)o2)cc1`, inactive: 1.48%. The figure for `O=C(NCc1ccc(F)cc1)C1CCCN(c2ncnc3onc(-c4ccc(F)cc4)c23)C1` (centres undefined) is inactive: -15.2%.

Turning to `COc1ccc(-n2c(=O)c3c(C)c(C)sc3n(CC(=O)NCc3ccc(C)cc3)c2=O)c(OC)c1`, the activation is inactive: -10%. With `CS(=O)(=O)c1oc(-c2ccc(F)cc2)nc1S(=O)(=O)c1ccc(Cl)cc1`, the activation is inactive: 2.91%. The figure for `O=C(CSc1nc2c(sc3ccccc32)c(=O)n1CCCC(=O)NC1CCCC1)Nc1ccc(F)cc1` is inactive: -17.4%. The figure for `COc1ccc(Cl)cc1NC(=O)CSC1=Nc2ccccc2C2=NC(CC(=O)NC3CCCCC3)C(=O)N12` (centres undefined) is inactive: -4.55%; for `CCOC(=O)CNC(=O)c1ccc(-c2nn(C)c(=O)c3ccccc23)cc1` it is inactive: 41.9%; for `CC(=O)Nc1ccc(C(=O)O)cc1` it is inactive: 11%.

As to `Cc1ccc(Nc2c(-c3ccsc3)nc3cccc(C)n23)cc1`, the activation was inactive: -29.6%. As for `CCc1ccc(NCc2cc3ccc(OC)cc3n(CC(=O)Nc3ccc(C(C)C)cc3)c2=O)cc1`, the figure is inactive: -34%; as for `Cc1ccc(NC(=O)c2ccc3oc(=O)c(S(=O)(=O)c4ccccc4)cc3c2)cc1C`, inactive: -0.823%; as for `CC(NC(=O)C1CCN(C(=O)c2ccc(-n3ccc4ccccc43)s2)CC1)c1ccccc1` (centres undefined), inactive: -10.7%.

For `COc1ccccc1NC(=O)C1=C(C)Nc2nc(SCc3ccc(Cl)cc3)nn2C1c1ccccc1Cl` (centres undefined), the activation was inactive: -4.66%. The figure for `Cc1ccc(NC(=O)Cn2nnc(-c3nc(-c4ccncc4)no3)c2N)c(C)c1` is inactive: -8.77%; for `CCOC(=O)C1CCN(C(=O)CN2c3ccc(C(C)C)cc3-c3ccccc3S2(=O)=O)CC1` it is inactive: -16%. On to `CCOc1ccc(OC(=O)c2cn(-c3cccc(OC)c3)c(=O)c3ccccc23)cc1`, for which the activation is inactive: -14.5%.

With `COc1cc(C2NC(=O)N(C)C3=C2C(=O)N(c2cccc(Cl)c2)C3)ccc1O` (centres undefined), the activation is inactive: 8.89%.

As for `CCOC(=O)c1c(NC(C)=O)c2c3c(sc2n1Cc1ccc(Cl)cc1)CCCC3`, the activation is inactive: -21.5%.

As for `Cc1cccc2sc(N3CCN(C(=O)CS(=O)(=O)c4ccc(F)cc4)CC3)nc12`, the activation is inactive: 5.94%.

Regarding `O=C(CSc1nncn2c1cc1occc12)Nc1ccccc1C(F)(F)F`, the activation is inactive: -18.4%.

In the case of `CCOC(=O)C1CCCN(S(=O)(=O)c2ccc3c(c2)CCN3C(=O)CC)C1` (centres undefined), the activation is inactive: 10.2%. As for `CCc1ccccc1NC(=O)CN(c1cccc(C)c1C)S(C)(=O)=O`, the figure is inactive: 18.7%.
